Measured values published in the supplement of paper PMC3334620.
Whole data set: some 33,000 sequences, median “E-score (-0.5 to 0.5)” near -0.035, cut for the highest 2% near 0.35. This is one part of the list.

The sequences below were run against T1, Pdr3 (UniProt P33200) (assay: PBM E-score (8-mer binding enrichment) (E-score (-0.5 to 0.5)); higher = stronger / more preferred TF binding; most listed sequences are background and not binding sites). Conditions: protein concentration: 200 nM; construct: GST-full length.
T1 sequence: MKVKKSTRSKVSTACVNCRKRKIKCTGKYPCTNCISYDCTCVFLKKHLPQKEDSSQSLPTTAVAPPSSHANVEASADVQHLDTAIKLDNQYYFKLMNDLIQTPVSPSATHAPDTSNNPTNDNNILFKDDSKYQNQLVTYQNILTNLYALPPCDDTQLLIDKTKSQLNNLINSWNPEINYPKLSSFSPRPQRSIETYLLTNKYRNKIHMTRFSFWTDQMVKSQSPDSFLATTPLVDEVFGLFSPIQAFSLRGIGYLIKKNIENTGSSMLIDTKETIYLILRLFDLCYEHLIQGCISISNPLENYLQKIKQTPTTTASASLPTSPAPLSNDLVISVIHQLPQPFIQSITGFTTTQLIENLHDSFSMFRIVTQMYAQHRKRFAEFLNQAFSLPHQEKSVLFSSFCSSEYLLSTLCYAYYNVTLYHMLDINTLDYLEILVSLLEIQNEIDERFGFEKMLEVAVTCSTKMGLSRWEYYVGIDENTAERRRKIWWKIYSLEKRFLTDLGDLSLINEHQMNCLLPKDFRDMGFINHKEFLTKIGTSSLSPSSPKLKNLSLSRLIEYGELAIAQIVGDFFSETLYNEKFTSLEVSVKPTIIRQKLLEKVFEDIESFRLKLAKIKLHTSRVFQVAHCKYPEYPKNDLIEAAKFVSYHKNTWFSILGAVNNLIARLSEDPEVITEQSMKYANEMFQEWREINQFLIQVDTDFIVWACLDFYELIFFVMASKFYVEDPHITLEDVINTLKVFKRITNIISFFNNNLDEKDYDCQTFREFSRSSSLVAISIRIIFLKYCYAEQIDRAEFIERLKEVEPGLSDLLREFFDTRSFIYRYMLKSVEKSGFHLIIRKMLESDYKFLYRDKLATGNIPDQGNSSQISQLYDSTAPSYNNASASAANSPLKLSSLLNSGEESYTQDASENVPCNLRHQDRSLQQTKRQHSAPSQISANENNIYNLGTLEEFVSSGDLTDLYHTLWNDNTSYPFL
Outline: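 Masliner-normalised scans of fluorescent anti-GST signal were the basis for scoring. That signal came from GST-tagged yeast transcription factors applied at about 100-200 nM to double-stranded universal all-10-mer Agilent arrays on fresh or once-stripped slides. Each ungapped eight-base word, pooled with its reverse complement, received an E-score from the Universal PBM Analysis Suite.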

Sequence	PBM E-score
AGACACCC	-0.149
AATCAAGC	-0.0517
CAACTTAC	-0.0863
CCAGCCAC	-0.0288
ATTATTGA	-0.188
GAGCCTAC	0.0395
ATGAAACG	0.0661
CCCCGTAA	-0.0098
GAAAAGTC	-0.00074
AAGAGAGG	-0.0863
AAATGTTG	-0.214
TACATGGA	-0.00152
AGAATGCT	-0.263
CCTCTCAG	-0.29
GACTCCGC	0.282
GGCGCTAA	-0.00474
CTTTGCAA	-0.014
ACCGGAAC	0.474
ACCCGTTG	0.0389
AGACGTTG	-0.0555
AGTAGTTC	0.204
CAAGCGCC	-0.00054
CACAGGAC	-0.0463
AGGGTTGC	-0.0666
ACTTTAGG	-0.29

Sequence	PBM E-score
AAATCGAT	-0.0751
GTCGGGCA	-0.132
ACCTAGAG	-0.257
GGTTCTCA	-0.0509
CACTTCGG	0.133
AGTGGCAG	-0.0107
ATTATATG	0.0486
CTCAATGA	-0.0432
CCCCGTAG	-0.0696
CGTGCGAC	-0.0358
TAGGACCA	-0.13
CATCCAAA	-0.191
GTCCGGGA	0.353
ATAATTCC	0.206
ACCTACCC	0.134
ATCTCACA	-0.147
CCAATATC	0.154
CCTCACGA	-0.169
TGCGAAAA	0.121
TAACATTA	-0.092
AGCAAAGC	-0.116
AGGTAATA	0.125
GTGGCCCA	-0.0486
ATCCCTCG	0.145
AGGCCACA	-0.216

Sequence	PBM E-score
CAATGATA	-0.0335
ATTCTTCG	-0.013
GAGGCCAC	-0.0817
CGTGATAA	0.0764
AGTTCACC	0.0988
GTTTGGTA	-0.0186
CCTCACAG	0.0304
AAAGCCTT	-0.26
CTGCATAA	-0.03
CAAGACCC	-0.0844
AAGACTCG	-0.104
CAGCGCAG	-0.00798
CACGCTGA	-0.206
TCCCCAAA	-0.0478
CGATTGTC	0.0469
CAAAAGCC	-0.0451
CTGATCGA	-0.302
AATACAGC	0.0881
ACTTCATC	-0.055
GAAGGTAC	-0.196
AGGTCGTG	-0.228
CCGCGGCG	0.477
CCAGTGAA	-0.166
GACGCCTA	-0.228
CAGTGCAC	-0.0999

Sequence	PBM E-score
ACCTGACC	-0.19
AAAAACAC	-0.131
GACCCCAC	0.0197
ATACTTTG	0.0195
GGTCGTGA	-0.217
GAGAACCC	-0.0375
TCAATGGA	-0.044
CTCTTATA	0.14
AGATGCAG	-0.231
AATTATCT	0.12
CTGGTTTC	0.0941
ACCGAACT	0.086
AGCACAAC	0.151
AAGGCTGA	-0.164
AAATTGTG	-0.258
AAGAACAC	0.0611
CATAGGTA	-0.128
ATTTGAGC	0.00602
ACAGCCCA	-0.183
CGATGCAA	-0.0399
CCGACCGG	0.339
ATGACATA	0.108
ATTCGATG	-0.0673
ATCGCTCA	-0.0441
GTAGCGTA	-0.0161

Sequence	PBM E-score
AGTGTGCA	-0.038
CAAGACGA	-0.12
ACGTTGAT	-0.0248
CTGGCGGC	0.188
CGGGAAAA	0.221
CCTATAAA	-0.19
GCCGGCGA	0.36
AACATTTA	0.116
AGCCATGA	-0.0703
GGGAGCCC	-0.0936
CTGTTGTA	-0.0713
AAAGAACA	-0.143
TAACTTCA	-0.118
CAGATTAG	-0.229
GACAACAA	-0.115
AGAGATAT	-0.106
GAGTGCAC	-0.0758
AATTTTCC	0.339
AGTGAAGA	-0.211
AGCGGAAG	0.341
ACGCAGCC	0.00505
AAATTAGT	0.0923
AAAAGCCG	0.142
CCGCGCAC	0.174
AATCAAAA	0.0383

Sequence	PBM E-score
CCCGCCGG	0.373
CAATTAAC	0.12
ACGTAGTC	-0.204
GAGGCAGA	-0.166
ATTTTGCA	-0.0654
GACCGGCC	0.24
AGCCGTAT	0.0899
CCAGTGCC	-0.1
AACGTACG	-0.162
ACTGCCTG	-0.0681
ACGTGAAT	-0.14
CGTCTACC	-0.0665
GCGGCTAC	0.17
AAGTAGAT	0.106
ACGATGCG	-0.19
CGCTCACG	0.154
CCAGTACA	-0.16
AATTGGCA	-0.105
AGGGGTTC	-0.0384
ATCTTGAC	-0.184
GGTCCAGA	-0.0782
CGTGAATC	0.0238
AGGTGGAC	-0.134
GTTCCGCA	0.462
GAACGGTA	0.0166

Sequence	PBM E-score
AATCTCAG	-0.0785
GCTTCACA	-0.0787
ACTTCTTG	-0.0216
ATTATGAA	0.01
AGTCGCAT	-0.203
GCTCAAAC	0.0815
GCGAGCAC	0.0146
GATGTCGC	0.0977
GATTGGGA	-0.0927
CTCATACC	0.07
CGCTAGTA	0.153
CTGGTGGC	-0.0314
CCGCCCCG	0.435
ATAAAATA	0.0204
AAACGTCC	-0.131
GTGTTCGA	0.0381
CGTTTTCA	0.149
GCCAAATA	-0.0741
GTGGTGCA	-0.0441
GCCGATCC	0.231
CCATCTGC	0.0199
AACCAGAC	-0.142
GGTCGATA	-0.0029
CGACTCCA	-0.0629
GAGATGAC	-0.116

Sequence	PBM E-score
CCCCATCG	0.209
CGGACATA	0.32
ATACGGCC	0.0641
AAACGCAA	0.0821
GTGCTCGA	0.00353
GTGTGGTA	-0.21
CGCAATAC	0.0777
GAGCATCC	0.206
AGTGCAAC	-0.107
CTCGACAC	-0.0404
CTAGGGAA	-0.173
CTATTGGA	0.0372
CACATGTA	-0.0565
CCCAGTTA	-0.101
ACCGCCCG	0.227
CTGTATTA	-0.0708
AGTCTCAT	-0.152
CGTTGGTA	0.0736
GACTTTGA	-0.204
CCCAGTGA	-0.289
ATAATATC	0.0559
AAGTCGGG	0.0808
TATTAGCA	-0.0886
CCGTAGGC	0.0972
GACAGCCC	0.0115

Sequence	PBM E-score
ACATGCAC	-0.17
GGATAGTA	0.229
CTGATTAC	0.0274
GTCACCGA	-0.0164
CTCCCCAA	-0.0194
AATTATTA	0.109
CTCCTCAA	-0.152
CGCTAGCC	-0.0348
GTTCCCAA	-0.0438
CCGATATA	0.117
ACGTCTAA	-0.159
CCTTTTCG	-0.0249
ATCTAAAG	-0.0798
CCGTTCAG	0.246
AGTTGCCG	0.196
CTTAGGCC	-0.139
CACGGTAA	0.0607
GGTCTAGA	-0.229
CATTACGG	0.0441
